The target in this assay is Genome polyprotein (dengue virus type 2) (UniProt P29990).
[1] abbreviates: Thailand/16681/1984, Concentration 25.0 uM, Number of replicates 1.0.

Among all 2,000 compounds or so, about 110 (5.5%) showed an effect of 50% or more. The list shows a part of the results.

`C[C@@H](NCc1ccc(C(N)=O)cc1)c1ccc(OCc2ccccc2)cc1`: the inhibition reads like this: (Thailand/16681/1984, Concentration 49.5 uM, Number of replicates 2.0, Standard deviation 1.6752456853530722 %) 0.14%; (Thailand/16681/1984, Concentration 99.01 uM, Number of replicates 2.0, Standard deviation 1.116678580733439 %) 0.358%; (Thailand/16681/1984, Concentration 198.0 uM, Number of replicates 2.0, Standard deviation 0.6068608391781741 %) -0.175%.
In the case of `CC(C)Cn1cccc(C(=O)NC2CCN(C)CC2)c1=O`, the inhibition (Thailand/16681/1984, Concentration 49.5 uM, Number of replicates 2.0, Standard deviation 1.1325904279657266 %) is -1.98%; the inhibition (Thailand/16681/1984, Concentration 99.01 uM, Number of replicates 2.0, Standard deviation 1.6159051142858558 %) was -2.07%; the inhibition (Thailand/16681/1984, Concentration 198.0 uM, Number of replicates 2.0, Standard deviation 1.619546998440991 %) was -1.15%.
Take `O=Cc1ccc(N2CCC(C(=O)N3CCN(Cc4c(F)cccc4Cl)CC3)CC2)cc1`: the inhibition under setting [1] came out at 12.1%.
Regarding `CC(C)c1cccc(C(C)C)c1NC(=O)C1CCN(c2ccc(C=O)cc2)CC1`, the inhibition under setting [1] was 12.7%.
As to `CC(C)COc1ccc(CNC(=O)C2CCN(c3ccc(C=O)cc3)CC2)cc1`, the inhibition under setting [1] amounted to 2.46%.
As to `COc1cncc(-c2ccccc2C(=O)Nc2cnn(C)c2)c1`, the inhibition is -3.38% (Thailand/16681/1984, Concentration 49.5 uM, Number of replicates 2.0, Standard deviation 4.873700787377785 %); -2.98% (Thailand/16681/1984, Concentration 99.01 uM, Number of replicates 2.0, Standard deviation 4.283563999447018 %); -2.42% (Thailand/16681/1984, Concentration 198.0 uM, Number of replicates 2.0, Standard deviation 3.278109642747346 %).
`O=Cc1ccc(N2CCC(C(=O)NCc3ccc4c(c3)OCCO4)CC2)cc1`: the inhibition under setting [1] was 12.2%.
In the case of `O=Cc1ccc(N2CCC(C(=O)Nc3c(Cl)cccc3[N+](=O)[O-])CC2)cc1`, under setting [1], the inhibition turned out to be 16.2%.
With `CN(C)CC[C@H]1CCCCN1C(=O)C1CCN(c2ccc(C=O)cc2)CC1`, the inhibition under setting [1] is 12.7%.
For `Cc1cc(CO)c2cccc(Cc3ccccc3NC(=O)COc3cccc(CN)c3)c2n1`, the inhibition runs as follows: (Thailand/16681/1984, Concentration 49.95 uM, Number of replicates 2.0, Standard deviation 1.3016362954274043 %) 16.2%; (Thailand/16681/1984, Concentration 99.9 uM, Number of replicates 2.0, Standard deviation 0.9589170051249469 %) 36.2%.
With `c1ccc2c([C@H]3CCN(Cc4cc(-c5ccncc5)[nH]n4)C3)c[nH]c2c1`, the inhibition is -1.48% (Thailand/16681/1984, Concentration 49.5 uM, Number of replicates 2.0, Standard deviation 1.1828738098753457 %); -0.346% (Thailand/16681/1984, Concentration 99.01 uM, Number of replicates 2.0, Standard deviation 1.3116025078136844 %); 1.4% (Thailand/16681/1984, Concentration 198.0 uM, Number of replicates 2.0, Standard deviation 1.2038517715189156 %).
As to `c1cc(CN2CCC[C@H](c3c[nH]c4ccccc34)C2)c2[nH]ccc2c1`, the inhibition by setting is: (Thailand/16681/1984, Concentration 50.0 uM, Number of replicates 2.0, Standard deviation 0.4266990775965363 %) 3.91%; (Thailand/16681/1984, Concentration 100.0 uM, Number of replicates 2.0, Standard deviation 0.08925842718897734 %) 2.52%; (Thailand/16681/1984, Concentration 200.0 uM, Number of replicates 2.0, Standard deviation 0.03646535850121636 %) -0.209%.
Turning to `O=Cc1ccc(N2CCC(C(=O)Nc3cccc(N4CCOCC4)c3)CC2)cc1`, the inhibition under setting [1] was found to be 5.25%.
`CC[C@H](C)N(Cc1ccccc1)C(=O)C1CCN(c2ccc(C=O)cc2)CC1`: under setting [1], the inhibition came out at 15.2%.
With `Cn1cc(NC(=O)c2ccccc2C(F)(F)F)c(-c2ccccc2CO)n1`, the inhibition reads like this: (Thailand/16681/1984, Concentration 49.5 uM, Number of replicates 2.0, Standard deviation 2.690411200151082 %) 0.164%; (Thailand/16681/1984, Concentration 99.01 uM, Number of replicates 2.0, Standard deviation 1.656230038829321 %) 3.26%; (Thailand/16681/1984, Concentration 198.0 uM, Number of replicates 2.0, Standard deviation 0.4386121372092316 %) 5.18%.
Turning to `Cc1ccc2c(c1)C(=O)NCCN2S(=O)(=O)c1ccc(Oc2ccccc2Cl)cc1`, the inhibition (Thailand/16681/1984, Concentration 49.5 uM, Number of replicates 2.0, Standard deviation 1.3317942199982835 %) is 3.76%; the inhibition (Thailand/16681/1984, Concentration 99.01 uM, Number of replicates 2.0, Standard deviation 0.1427776755398689 %) turned out to be 5.3%; the inhibition (Thailand/16681/1984, Concentration 198.0 uM, Number of replicates 2.0, Standard deviation 0.4641463839110716 %) is 7.48%.
On to `CC(C)(CO)NC(=O)c1cc(Cl)cc(NC(=O)c2cc(Cl)ccc2O)c1`, for which the inhibition is, setting by setting: (Thailand/16681/1984, Concentration 49.5 uM, Number of replicates 2.0, Standard deviation 0.8854702210359225 %) 8.85%; (Thailand/16681/1984, Concentration 99.01 uM, Number of replicates 2.0, Standard deviation 1.285544965840733 %) 17.3%; (Thailand/16681/1984, Concentration 198.0 uM, Number of replicates 2.0, Standard deviation 0.761128925733871 %) 30.7%.
`Cc1cc(CO)c2cccc(CC(=O)N3CCC(CN)CC3)c2n1`: the inhibition (Thailand/16681/1984, Concentration 49.95 uM, Number of replicates 2.0, Standard deviation 0.0034621107240788793 %) was -8.08% and the inhibition (Thailand/16681/1984, Concentration 99.9 uM, Number of replicates 2.0, Standard deviation 0.5836590412197755 %) is 1.32%.
As for `Cc1ccc(N)cc1NC(=O)c1ccc2c(c1)CCNCC2`, under “Thailand/16681/1984, Concentration 99.9 uM, Number of replicates 2.0, Standard deviation 6.34893595313931 %”, the inhibition was -4.39%.
As for `O=Cc1ccc(N2CCC(C(=O)Nc3ccc4c(c3)OC(F)(F)O4)CC2)cc1`, under setting [1], the inhibition is 10.8%.
As for `C[C@@H](Cc1ccc(C(F)(F)F)cc1)NC(=O)C1CCN(c2ccc(C=O)cc2)CC1`, under setting [1], the inhibition stood at 8.27%.
For `C[C@H](NC(=O)C1CCN(c2ccc(C=O)cc2)CC1)c1ccc(S(C)(=O)=O)cc1`, under setting [1], the inhibition turned out to be 12.5%.
On to `CCN(C(=O)C1CCN(c2ccc(C=O)cc2)CC1)C1C2CC3CC(C2)CC1C3` (stereo not given), for which the inhibition under setting [1] amounted to 14.3%.
Regarding `Cc1cc(I)ccc1NC(=O)C1CCN(c2ccc(C=O)cc2)CC1`, under setting [1], the inhibition worked out at 2.76%.
`Cn1cncc1CN1CCC(c2c[nH]c3cccnc23)CC1`: the inhibition reads like this: (Thailand/16681/1984, Concentration 49.5 uM, Number of replicates 2.0, Standard deviation 0.15351466949171616 %) -5.61%; (Thailand/16681/1984, Concentration 99.01 uM, Number of replicates 2.0, Standard deviation 0.4102628182016519 %) -5.32%; (Thailand/16681/1984, Concentration 198.0 uM, Number of replicates 2.0, Standard deviation 0.591810536749722 %) -5.54%.

The term inhibition denotes the relative decrease from the control value, in per cent.

Values taken from ChEMBL document CHEMBL5606460, “ASAP - DENV-2 NS2B-NS3 protease fluorescence single point” (2024).
